This is one part of the list. Most values come without repeats; read them as rough.
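Further: cells treated in 1,536-well plates, then fixed and DAPI-stained, with nuclei counted from automated high-throughput microscope images.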

The first experiment has as its system A101D. Kind of experiment: cell count relative to DMSO control; melanoma cells; higher = more viable cells. Particulars: library dose: standard library concentration; 72 h; first compound 2 µM.
The molecule `CCCCCCCCCCCCCCCCCCOP(=O)([O-])OC1CC[N+](C)(C)CC1` [Perifosine] + O=C(O)C(=O)Nc1sc2c(c1C(=O)O)CCNC2 [TCS401] (partner dose 8.33333 µM) returned a cell count of 99.6%. For the molecule `CCCCCCCCCCCCCCCCCCOP(=O)([O-])OC1CC[N+](C)(C)CC1` [Perifosine] + NCC(=O)Nc1ccc(-n2nc(C(F)(F)F)cc2-c2ccc3c(ccc4ccccc43)c2)cc1 [OSU03012] (partner dose 5 µM), the cell count is 70.9%. On the same count and under the same terms, the same measure for `Cn1sc(=O)n(Cc2ccccc2)c1=O` + CN1CCN(c2ccc3nc(-c4c(N)c5c(F)cccc5[nH]c4=O)[nH]c3c2)CC1 [Dovitinib] (partner dose 0.5 µM): 61.6%; for `Cn1sc(=O)n(Cc2ccccc2)c1=O` + COC(=O)c1sccc1S(=O)(=O)Nc1ccc(Nc2ccccc2)cc1OC [GSK0660] (partner dose 5 µM): 95%; for `Cn1sc(=O)n(Cc2ccccc2)c1=O` + N#Cc1c(O)c2c(-c3ccc(-c4ccccc4O)cc3)csc2[nH]c1=O [A769662] (partner dose 10 µM): 99.2%. On the same count and under the same terms, the same measure for `C[C@@H](N)c1ccc(C(=O)Nc2ccnc3[nH]ccc23)cc1` + Cc1cc(Nc2cc(N3CCN(C)CC3)nc(/C=C/c3ccccc3)n2)n[nH]1 [ENMD2076] (partner dose 0.2 µM): 71.2%.

A further experiment relates to A2058. The description is as above. The settings on record: library dose: standard library concentration; 72 h; first compound 2 µM.
The molecule `Cn1sc(=O)n(Cc2ccccc2)c1=O` + C=CCn1c(=O)c2cnc(Nc3ccc(N4CCN(C)CC4)cc3)nc2n1-c1cccc(C(C)(C)O)n1 [MK1775] (partner dose 0.1 µM) registered a cell count of 114%. Same read-out and setting: the same measure for `C[C@@H](N)c1ccc(C(=O)Nc2ccnc3[nH]ccc23)cc1` + CCN(CC)CCNC(=O)c1c(C)[nH]c(/C=C2\C(=O)Nc3ccc(F)cc32)c1C [sunitinib] (partner dose 2 µM): 50.8%. Same read-out and setting: the figure for `CCCCCCCCCCCCCCCCCCOP(=O)([O-])OC1CC[N+](C)(C)CC1` [Perifosine] + Cn1cc(/C=C2\C(=O)Nc3cccnc32)c2ccccc21 [GW441756] (partner dose 2 µM) is 95.8%; for `Cn1sc(=O)n(Cc2ccccc2)c1=O` + COc1cc2ncnc(Nc3ccc(Oc4ccccc4)cc3)c2cc1OC [SrcI1] (partner dose 10 µM) it is 83.5%. Still for that read-out and setting: the same measure for `Cn1sc(=O)n(Cc2ccccc2)c1=O` + O=C(O)[C@@H]1[O][Sb](=[O])([O][Sb]2(=[O])[O][C@H]([C@H](O)CO)[C@H](O)[C@H](C(=O)O)[O]2)[O][C@H]([C@H](O)CO)[C@@H]1O [stibogluconate] (partner dose 10 µM): 111%. For `C[C@@H](N)c1ccc(C(=O)Nc2ccnc3[nH]ccc23)cc1` + O=C(O)[C@@H]1[O][Sb](=[O])([O][Sb]2(=[O])[O][C@H]([C@H](O)CO)[C@H](O)[C@H](C(=O)O)[O]2)[O][C@H]([C@H](O)CO)[C@@H]1O [stibogluconate] (partner dose 10 µM), the cell count came to 68.7%.

For `CCCCCCCCCCCCCCCCCCOP(=O)([O-])OC1CC[N+](C)(C)CC1` [Perifosine] + Cc1cc([N+](=O)[O-])ccc1NS(=O)(=O)c1cc(Cl)ccc1Cl [FH535] (partner dose 5 µM), the cell count worked out at 61.7%. On the same count and under the same terms, the same measure for `Cn1sc(=O)n(Cc2ccccc2)c1=O` + CCc1ccc(CCOc2ccc(CC3SC(=O)NC3=O)cc2)nc1 [pioglitazone] (partner dose 10 µM): 96%. On the same count and under the same terms, the same measure for `CCCCCCCCCCCCCCCCCCOP(=O)([O-])OC1CC[N+](C)(C)CC1` [Perifosine] + Oc1nc(-c2ccc(C(F)(F)F)cc2)nc2c1CSCC2 [XAV939] (partner dose 10 µM): 75.4%; for `CCCCCCCCCCCCCCCCCCOP(=O)([O-])OC1CC[N+](C)(C)CC1` [Perifosine] + Cc1ccc(Nc2nccc(N(C)c3ccc4c(C)n(C)nc4c3)n2)cc1S(N)(=O)=O [Pazopanib] (partner dose 2 µM): 67.2%; for `CCCCCCCCCCCCCCCCCCOP(=O)([O-])OC1CC[N+](C)(C)CC1` [Perifosine] + c1cc(-c2cnn3cc(-c4ccc(OCCN5CCCCC5)cc4)cnc23)ccn1 [Dorsomorphin] (partner dose 2 µM): 75%. Still for that read-out and setting: the same measure for `C[C@@H](N)c1ccc(C(=O)Nc2ccnc3[nH]ccc23)cc1` + COc1cc2ncnc(Nc3ccc(Oc4ccccc4)cc3)c2cc1OC [SrcI1] (partner dose 10 µM): 42.3%. Molecule `C[C@@H](N)c1ccc(C(=O)Nc2ccnc3[nH]ccc23)cc1` + COCC[n+]1c2c(n(Cc3cnccn3)c1C)C(=O)c1ccccc1C2=O [YM155] (partner dose 0.002 µM) gave a cell count of 14.9%. The same measure, in the same setting: the figure for `CCCCCCCCCCCCCCCCCCOP(=O)([O-])OC1CC[N+](C)(C)CC1` [Perifosine] + O=c1cc(-c2cccc3c2Sc2ccccc2S3)oc(N2CCOCC2)c1 [KU55933] (partner dose 5 µM) is 90.8%. The same measure, in the same setting: the same measure for `C[C@@H](N)c1ccc(C(=O)Nc2ccnc3[nH]ccc23)cc1` + Cc1cc([N+](=O)[O-])ccc1NS(=O)(=O)c1cc(Cl)ccc1Cl [FH535] (partner dose 5 µM): 58%; for `CCCCCCCCCCCCCCCCCCOP(=O)([O-])OC1CC[N+](C)(C)CC1` [Perifosine] + CCN(CC)CCCCNc1ncc2cc(-c3cc(OC)cc(OC)c3)c(NC(=O)NC(C)(C)C)nc2n1 [PD173074] (partner dose 0.5 µM): 93.5%. Same read-out and setting: the same measure for `C[C@@H](N)c1ccc(C(=O)Nc2ccnc3[nH]ccc23)cc1` + c1cc(-c2cnn3cc(-c4ccc(OCCN5CCCCC5)cc4)cnc23)ccn1 [Dorsomorphin] (partner dose 2 µM): 38.7%; for `C[C@@H](N)c1ccc(C(=O)Nc2ccnc3[nH]ccc23)cc1` + Nc1nc(F)nc2c1ncn2[C@@H]1O[C@H](CO)[C@@H](O)[C@@H]1O [fludarabine] (partner dose 1 µM): 61.2%; for `C[C@@H](N)c1ccc(C(=O)Nc2ccnc3[nH]ccc23)cc1` + CN(NC(=O)CC(=O)NN(C)C(=S)c1ccccc1)C(=S)c1ccccc1 [STA4783] (partner dose 0.03 µM): 8.79%.

`CCCCCCCCCCCCCCCCCCOP(=O)([O-])OC1CC[N+](C)(C)CC1` [Perifosine] + COc1cc2ncnc(Nc3ccc(Oc4ccccc4)cc3)c2cc1OC [SrcI1] (partner dose 10 µM) gave a cell count of 74.8%. Take `CCCCCCCCCCCCCCCCCCOP(=O)([O-])OC1CC[N+](C)(C)CC1` [Perifosine] + Cc1cc(Nc2cc(N3CCN(C)CC3)nc(/C=C/c3ccccc3)n2)n[nH]1 [ENMD2076] (partner dose 0.2 µM): the cell count amounted to 67.2%. Same read-out and setting: the figure for `C[C@@H](N)c1ccc(C(=O)Nc2ccnc3[nH]ccc23)cc1` + O=c1cc(-c2cccc3c2Sc2ccccc2S3)oc(N2CCOCC2)c1 [KU55933] (partner dose 5 µM) is 72.3%. Turning to `Cn1sc(=O)n(Cc2ccccc2)c1=O` + O=c1cc(-c2cccc3c2Sc2ccccc2S3)oc(N2CCOCC2)c1 [KU55933] (partner dose 5 µM), the cell count was found to be 123%. The same measure, in the same setting: the figure for `CCCCCCCCCCCCCCCCCCOP(=O)([O-])OC1CC[N+](C)(C)CC1` [Perifosine] + O=C1NC(=O)/C(=C/c2ccc(-c3ccc(F)cc3O)o2)S1 [AS252424] (partner dose 5 µM) is 92.1%. Still for that read-out and setting: the figure for `Cn1sc(=O)n(Cc2ccccc2)c1=O` + Oc1cc(-c2nc(-c3ccccc3)[nH]c2-c2ccncc2)ccc1Cl [L779450] (partner dose 1 µM) is 101%. `Cn1sc(=O)n(Cc2ccccc2)c1=O` + Oc1nc(-c2ccc(C(F)(F)F)cc2)nc2c1CSCC2 [XAV939] (partner dose 10 µM) showed a cell count of 75%.

Molecule `Cn1sc(=O)n(Cc2ccccc2)c1=O` + COc1ccc(C2=N[C@@H](c3ccc(Cl)cc3)[C@@H](c3ccc(Cl)cc3)N2C(=O)N2CCNC(=O)C2)c(OC(C)C)c1 [Nutlin-3] (partner dose 0.5 µM) displayed a cell count of 96.4%. The same measure, in the same setting: the figure for `Cn1sc(=O)n(Cc2ccccc2)c1=O` + CCN(CC)CCCCNc1ncc2cc(-c3cc(OC)cc(OC)c3)c(NC(=O)NC(C)(C)C)nc2n1 [PD173074] (partner dose 0.5 µM) is 69.6%; for `C[C@@H](N)c1ccc(C(=O)Nc2ccnc3[nH]ccc23)cc1` + NC(=O)c1ccc(N(C(N)=O)c2c(F)cccc2F)nc1-c1ccc(F)cc1F [VX702] (partner dose 2 µM) it is 76.6%; for `CCCCCCCCCCCCCCCCCCOP(=O)([O-])OC1CC[N+](C)(C)CC1` [Perifosine] + Oc1cc(-c2nc(-c3ccccc3)[nH]c2-c2ccncc2)ccc1Cl [L779450] (partner dose 1 µM) it is 90.3%. In turn, `Cn1sc(=O)n(Cc2ccccc2)c1=O` + COc1ccc2c(c1)CCC1C2CCC2(C)C(NCCCCCCN3C(=O)C=CC3=O)CCC12 [U73122] (partner dose 2 µM) showed a cell count of 95%. The same measure, in the same setting: the same measure for `CCCCCCCCCCCCCCCCCCOP(=O)([O-])OC1CC[N+](C)(C)CC1` [Perifosine] + C[C@]1(O)C[C@@H](c2nc(-c3ccc4ccc(-c5ccccc5)nc4c3)c3c(N)nccn32)C1 [OSI906] (partner dose 2 µM): 85.5%.

In turn, `Cn1sc(=O)n(Cc2ccccc2)c1=O` + Cn1cc(/C=C2\C(=O)Nc3cccnc32)c2ccccc21 [GW441756] (partner dose 2 µM) gave a cell count of 115%. On the same count and under the same terms, the same measure for `CCCCCCCCCCCCCCCCCCOP(=O)([O-])OC1CC[N+](C)(C)CC1` [Perifosine] + O=C(O)C(=O)Nc1sc2c(c1C(=O)O)CCNC2 [TCS401] (partner dose 8.33333 µM): 106%. With `CCCCCCCCCCCCCCCCCCOP(=O)([O-])OC1CC[N+](C)(C)CC1` [Perifosine] + NCC(=O)Nc1ccc(-n2nc(C(F)(F)F)cc2-c2ccc3c(ccc4ccccc43)c2)cc1 [OSU03012] (partner dose 5 µM), the cell count was 101%.
